# Screen size: about 310,000 compounds; about 2,200 (0.71%) showed an effect of 50% or more. Effects have a minus sign here. This is one part of the list.
# Biological target: human ether-à-go-go-related gene (hERG) potassium channel (human, UniProt Q12809)
# Assay: primary screen, population patch clamp on CHO cells stably expressing hERG
# Chain of human ether-à-go-go-related gene (hERG) potassium channel (Q12809 whole entry, looked up): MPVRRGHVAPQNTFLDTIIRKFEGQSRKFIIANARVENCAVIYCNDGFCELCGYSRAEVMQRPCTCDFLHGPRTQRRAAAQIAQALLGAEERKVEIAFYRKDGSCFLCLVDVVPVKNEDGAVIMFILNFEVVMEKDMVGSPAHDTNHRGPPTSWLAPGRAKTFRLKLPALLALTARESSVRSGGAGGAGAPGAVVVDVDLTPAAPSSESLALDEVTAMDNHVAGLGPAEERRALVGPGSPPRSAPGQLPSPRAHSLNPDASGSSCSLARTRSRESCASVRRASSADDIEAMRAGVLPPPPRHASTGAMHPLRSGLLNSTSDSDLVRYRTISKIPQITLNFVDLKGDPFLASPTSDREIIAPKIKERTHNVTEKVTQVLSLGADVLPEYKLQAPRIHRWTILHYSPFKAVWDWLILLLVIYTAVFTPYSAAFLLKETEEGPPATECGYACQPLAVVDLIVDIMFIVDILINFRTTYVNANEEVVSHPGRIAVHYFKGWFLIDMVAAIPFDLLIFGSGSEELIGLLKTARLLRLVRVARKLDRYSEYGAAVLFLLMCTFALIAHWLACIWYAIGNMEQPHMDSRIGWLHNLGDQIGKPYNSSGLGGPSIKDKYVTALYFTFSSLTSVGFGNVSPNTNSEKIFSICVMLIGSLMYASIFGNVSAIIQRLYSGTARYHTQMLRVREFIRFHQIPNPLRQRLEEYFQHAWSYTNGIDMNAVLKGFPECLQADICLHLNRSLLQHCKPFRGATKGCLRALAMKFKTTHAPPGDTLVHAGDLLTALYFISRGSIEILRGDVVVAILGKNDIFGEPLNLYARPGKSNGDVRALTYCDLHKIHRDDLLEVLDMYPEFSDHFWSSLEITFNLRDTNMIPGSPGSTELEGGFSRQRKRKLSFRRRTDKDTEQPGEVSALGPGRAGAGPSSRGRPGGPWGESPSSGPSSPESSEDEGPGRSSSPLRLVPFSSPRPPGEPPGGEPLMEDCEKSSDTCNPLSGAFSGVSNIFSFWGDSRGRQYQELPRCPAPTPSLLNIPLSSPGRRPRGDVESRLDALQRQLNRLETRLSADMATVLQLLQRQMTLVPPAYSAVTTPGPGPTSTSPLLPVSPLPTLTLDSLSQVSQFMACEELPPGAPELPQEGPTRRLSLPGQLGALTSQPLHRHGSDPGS
row,Compound,"hERG current change (%, negative = inhibition) at 1uM [%]"
1,Cc1ccc2oc(=O)c3cnn(CC(=O)N(CCCN4CCOCC4)Cc4ccco4)c3c2c1,-13.2
2,O=C(O)C(=O)O.O=[N+]([O-])c1ccccc1CNCCc1ccc(F)cc1,-17.1
3,O=C(c1cc(-c2ccco2)nc2ccccc12)N1CCN(c2ccc(F)cc2)CC1,6.36
4,COc1cccc(Nc2nnc(SCC(=O)N3CC(C)OC(C)C3)s2)c1 (stereo not shown),8.49
5,C=CCn1c(/N=C/c2ccc(OC)cc2)nc2ccccc21,11.2
6,O=c1ccnc(SCCC(F)=C(F)F)[nH]1,16.9
7,CN(C(N)=S)c1ccccc1,13.6
8,CCOC(=O)N1CCC(NC(=O)CSCc2nc(-c3ccc(C)cc3)oc2C)CC1,6.59
9,CSc1cc(C)nc(N(C)C(C)=O)n1,23.1
10,COc1nc(Cl)cn(-c2ccc(Cl)cc2)c1=O,14.4
11,COc1cc(OC)cc(C(=O)NC(=S)Nc2ccc(N3CCCC3)cc2)c1,1.75
12,Cc1cc(C)nc(-n2nc(C)c3c(C(F)(F)F)cc(=O)[nH]c32)n1,6.54
13,COc1ccc(-c2cc(=O)oc3c(C)c(OC(C)C(C)=O)ccc23)cc1 (stereo not shown),16.4
14,CSc1ncccc1C(=O)OCC(=O)NCc1ccc2c(c1)OCO2,8.92
15,CSCC[C@H](N)C(=O)N1CCC(C(=O)N[C@H](C)C(=O)NC(C)c2ccccc2)CC1 (stereo partly shown),8.95
16,CCOC(=O)c1ccc(NC(=O)c2c(N)n(C)c(=O)[nH]c2=O)cc1,12.8
17,COc1cc(C)c(NC(=O)C(=S)NCCc2ccccc2)cc1C,7.04
18,COc1ccc2c(=O)c3c(=O)n(-c4ccccc4)c(-c4ccco4)nc3oc2c1,13.3
19,COc1ccc(CC(=O)OCC(=O)Nc2ccc(Cl)cn2)cc1,2.4
20,COC(=O)c1ccccc1NC1c2ccccc2C(=O)N1c1cccnc1 (stereo not shown),8.65
21,CCOc1cccc(SCc2noc(C(=O)NCC3CCCO3)c2C(=O)O)c1 (stereo not shown),23.7
22,CC1(C)CC(N2CCN(C(c3ccccc3)c3ccccc3)CC2)=CC(=[N+]2CCCCC2)C1.[I-],-26.4
23,CN(CCNC(=O)c1cn(C)c2ccc(S(=O)(=O)N(C)C)cc2c1=O)CCc1ccccc1,-8.87
24,Cc1cccn2c(=O)c3cc(C#N)c(=O)n(CCCN4CCOCC4)c3nc12,-21.2
25,O=C(COC(=O)C1=COCCO1)Nc1cc(S(=O)(=O)N2CCCCC2)ccc1Cl,8.24
26,O=S(=O)(c1cc(Cl)ccc1Cl)n1cccn1,11.6
27,O=C(COc1ccc(S(=O)(=O)N2CCOCC2)cc1)Nc1ccc2c(c1)OCCO2,-10
28,COc1cccc(/C=C/C(=C2/C(=O)N(c3ccccc3)N=C2C)c2ccc(Br)cc2)c1OC,8.79

row,Compound,"hERG current change (%, negative = inhibition) at 1uM [%]"
1,NNC(=O)CNC(c1ccccc1)c1cc(Br)ccc1NC(=O)c1ccc(Br)cc1 (stereo not shown),3.33
2,Cc1ccc(S(=O)(=O)N2CCN(C)CC2)cc1-c1nnc2c3ccccc3c(C)nn12,-1.83
3,O=c1[nH]c(NC2CCCCC2)nnc1Cc1ccccc1,15
4,COc1ccc(-c2cc(C)no2)cc1S(=O)(=O)NCC1CCN(Cc2cc(C)ccc2C)CC1,-14.7
5,COCCNC(=O)CSc1ccc(-c2nc3ccccc3[nH]2)cn1,5.48
6,CCCCC(=O)Nc1cnc(NC(=O)c2cccs2)cc1C,7.98
7,CCc1cc2c(-c3ccccc3)cc(=O)oc2cc1OC(C)C(=O)O (stereo not shown),17.3
8,O=S(=O)(Cc1noc(-c2ccc(OC(F)(F)F)cc2)n1)c1ccc(F)cc1,5.35
9,Cc1cc(Oc2cc(NN3CCCCC3)c([N+](=O)[O-])cc2[N+](=O)[O-])ccc1[N+](=O)[O-],-0.65
10,CCOC(=O)CC1C(=O)NCCN1Cc1cccs1 (stereo not shown),9.17
11,COc1ccc2nc(N/C(N)=N/S(C)(=O)=O)nc(C)c2c1,9.32
12,CC(=O)c1ccc(NC(=O)CC23CC4CC(C2)CC(n2nnc(C)n2)(C4)C3)cc1,0.832
13,C1=C(c2ccccc2)CCNC1.Cl,2.71
14,COc1ccc(CCC(=O)Nc2nnc(C)s2)cc1,5.82
15,COc1ccc(S(=O)(=O)N=C2C=C(C)C(=O)C(C)=C2)cc1,1.51
16,Cc1cc(-c2ccc(C)c(S(=O)(=O)NCCCN3CCN(c4ccccc4)CC3)c2)on1,13.4
17,CC(=O)c1c(C)[nH]c(C(=O)CN2CCN(S(=O)(=O)c3ccc(C(C)C)cc3)CC2)c1C,8.2
18,Cc1ccccc1N1CCN(C2CCCN(C(=O)CCN3CCCO3)C2)CC1 (stereo not shown),7.02
19,C#CCSc1nncn1C(=O)/C=C/c1ccccc1,9.8
20,NC(=O)C1CCN(C(=O)COc2ccc3c4c(c(=O)oc3c2)CCC4)CC1,11.2
21,CCC(Oc1ccccc1)C(=O)N1CCN(S(=O)(=O)c2ccccc2)CC1 (stereo not shown),2.04
22,O=C(/C=C/c1ccccc1)N/C(=C/c1ccccc1)C(=O)NCCCO,2.59
23,CC(C)c1onc(C(=O)Nc2ccc3c(c2)OCO3)c1[N+](=O)[O-],20.8
24,Cc1cc(C)nc(NS(=O)(=O)c2ccc(NC(=O)Cc3ccccc3)cc2)n1,12.1
25,Cc1ccnc(SCCn2c(N3CCN(C)CC3)nc3c2c(=O)n(C)c(=O)n3C)n1,18.1
26,CC(=O)c1ccc(S(=O)(=O)N(CCCO)Cc2cc3cc(C)ccc3[nH]c2=O)cc1,8.77
27,O=C(CCc1ccccc1)N1CCN(c2ccc(F)cc2)CC1,6.16
